Assay results reported in the supplement of paper PMC10037445.
The full ranking holds about 2,900 compounds; the median of “IRF Lucia reporter activity, fold change vs agonist alone” is about 0.9, and the highest 2% start at about 2.8. The list shows a part of the results.

How the values were obtained:
RAW-Dual [1] = experiment: IRF Lucia reporter activity, fold change vs agonist alone; cytotoxicity flag (confluency mask): not cytotoxic; higher = enhanced IRF activity
Outline: (§1)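 Supernatant from RAW-Dual macrophages was read after 20 hours for IRF by QuantiLuc luminescence and for NF-κB by QuantiBlue absorbance at 620 nm. The cells (50,000 cells/well in DMEM, 384-well plates, 37 °C, 5% CO2) had received 50 nL of library stock by pin tool and, 1 h later, a PRR agonist. Reporter activity is expressed relative to agonist-alone wells as fold change, and wells were flagged cytotoxic if IncuCyte confluency was under 70% of agonist controls in both mask sets.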

RAW-Dual [2] = experiment: IRF Lucia reporter activity, fold change vs agonist alone; higher = enhanced IRF activity; conditions: library stock concentration (final ~1000-fold dilution): 10 mM, agonist: MPLA (TLR4) […]
Outline: as §1

RAW-Dual [3] = experiment: IRF Lucia reporter activity, fold change vs agonist alone; cytotoxicity flag (confluency mask): cytotoxic (confluency <70% of control); higher = enhanced IRF activity
Outline: as §1

[4] = agonist: 3'3'-cGAMP (STING) 10 ug/mL
[5] = cytotoxicity flag (confluency mask): not cytotoxic

## CN(C)c1ccc(O)c2c1CC1CC3C(N(C)C)C(=O)C(C(N)=O)=C(O)C3(O)C(=O)C1=C2O (stereo not drawn) (library stock concentration (final ~1000-fold dilution): 5 mM)
RAW-Dual [1]; [4]
  IRF Lucia reporter activity: 0.71
RAW-Dual [1]; agonist: LPS (TLR4) 0.1 ug/mL
  IRF Lucia reporter activity: 0.397

## CNc1ccc([N+](=O)[O-])cc1-n1cnc(-c2ccc(C(F)(F)F)cc2)c1 (library stock concentration (final ~1000-fold dilution): 10 mM)
RAW-Dual [1]; [4]
  IRF Lucia reporter activity: 1.42
RAW-Dual [1]; agonist: LPS (TLR4) 0.1 ug/mL
  IRF Lucia reporter activity: 1.1

## CN(C)Cc1ccc(-c2nc3cccc4c3n2CCNC4=O)cc1 (library stock concentration (final ~1000-fold dilution): 10 mM)
RAW-Dual [1]; [4]
  IRF Lucia reporter activity: 0.869
RAW-Dual [1]; agonist: LPS (TLR4) 0.1 ug/mL
  IRF Lucia reporter activity: 0.3

## CN(C)Cc1ccc(-c2nc3cccc4c3n2CCNC4=O)cc1
RAW-Dual [2]; [5]
  IRF Lucia reporter activity: 0.213

## Cl.O=C(NC1CCNCC1)c1n[nH]cc1NC(=O)c1c(Cl)cccc1Cl (library stock concentration (final ~1000-fold dilution): 10 mM)
RAW-Dual [3]; [4]
  IRF Lucia reporter activity: 0.0898
RAW-Dual [3]; agonist: LPS (TLR4) 0.1 ug/mL
  IRF Lucia reporter activity: 0.581

## Cc1[nH]c(/C=C2\C(=O)Nc3ccc(S(=O)(=O)N(C)c4cccc(Cl)c4)cc32)c(C)c1C(=O)N1CCN(C)CC1
RAW-Dual [2]; [5]
  IRF Lucia reporter activity: 0.525

## Cc1[nH]c(/C=C2\C(=O)Nc3ccc(S(=O)(=O)N(C)c4cccc(Cl)c4)cc32)c(C)c1C(=O)N1CCN(C)CC1 (library stock concentration (final ~1000-fold dilution): 10 mM)
RAW-Dual [1]; [4]
  IRF Lucia reporter activity: 0.407
RAW-Dual [1]; agonist: LPS (TLR4) 0.1 ug/mL
  IRF Lucia reporter activity: 0.628

## CCCCCCc1ccc(O)cc1O (library stock concentration (final ~1000-fold dilution): 10 mM)
RAW-Dual [1]; [4]
  IRF Lucia reporter activity: 0.772
RAW-Dual [1]; agonist: LPS (TLR4) 0.1 ug/mL
  IRF Lucia reporter activity: 1.02

## CCCCCCc1ccc(O)cc1O
RAW-Dual [2]; [5]
  IRF Lucia reporter activity: 1.17

## CC1(C)NC(=O)N(c2ccc([N+](=O)[O-])c(C(F)(F)F)c2)C1=O (library stock concentration (final ~1000-fold dilution): 10 mM)
RAW-Dual [1]; [4]
  IRF Lucia reporter activity: 1.02
RAW-Dual [1]; agonist: LPS (TLR4) 0.1 ug/mL
  IRF Lucia reporter activity: 1.53

## CC1(C)NC(=O)N(c2ccc([N+](=O)[O-])c(C(F)(F)F)c2)C1=O
RAW-Dual [2]; [5]
  IRF Lucia reporter activity: 1.09

## C=CC(=O)N1CC/C(=C\c2ccc(F)c([N+](=O)[O-])c2)C(=O)/C(=C/c2ccc(F)c([N+](=O)[O-])c2)C1 (library stock concentration (final ~1000-fold dilution): 10 mM)
RAW-Dual [1]; [4]
  IRF Lucia reporter activity: 0.00954
RAW-Dual [1]; agonist: LPS (TLR4) 0.1 ug/mL
  IRF Lucia reporter activity: 0.0106

## O=C(Nc1c(Cl)cncc1Cl)c1ccc(OC(F)F)c(OCC2CC2)c1
RAW-Dual [2]; [5]
  IRF Lucia reporter activity: 0.965

## O=C(Nc1c(Cl)cncc1Cl)c1ccc(OC(F)F)c(OCC2CC2)c1 (library stock concentration (final ~1000-fold dilution): 10 mM)
RAW-Dual [1]; [4]
  IRF Lucia reporter activity: 0.881
RAW-Dual [1]; agonist: LPS (TLR4) 0.1 ug/mL
  IRF Lucia reporter activity: 0.885

## CCOC(=O)OC(C)OC1=C(C(=O)Nc2ccccn2)N(C)S(=O)(=O)c2ccccc21 (stereo not drawn) (library stock concentration (final ~1000-fold dilution): 10 mM)
RAW-Dual [1]; [4]
  IRF Lucia reporter activity: 1.13
RAW-Dual [1]; agonist: LPS (TLR4) 0.1 ug/mL
  IRF Lucia reporter activity: 1.32

## CCOC(=O)OC(C)OC1=C(C(=O)Nc2ccccn2)N(C)S(=O)(=O)c2ccccc21 (stereo not drawn)
RAW-Dual [2]; [5]
  IRF Lucia reporter activity: 1.12

## Cc1cccc(-c2[nH]c(CNc3ccccc3F)nc2-c2ccc3ncnn3c2)n1 (library stock concentration (final ~1000-fold dilution): 10 mM)
RAW-Dual [1]; [4]
  IRF Lucia reporter activity: 0.453
RAW-Dual [1]; agonist: LPS (TLR4) 0.1 ug/mL
  IRF Lucia reporter activity: 0.83

## Cc1cccc(-c2[nH]c(CNc3ccccc3F)nc2-c2ccc3ncnn3c2)n1
RAW-Dual [2]; [5]
  IRF Lucia reporter activity: 0.816

## CCCS(=O)(=O)Nc1ccc(F)c(C(=O)c2c[nH]c3ncc(-c4ccc(Cl)cc4)cc23)c1F (library stock concentration (final ~1000-fold dilution): 10 mM)
RAW-Dual [1]; [4]
  IRF Lucia reporter activity: 0.195
RAW-Dual [1]; agonist: LPS (TLR4) 0.1 ug/mL
  IRF Lucia reporter activity: 0.356

## CCCS(=O)(=O)Nc1ccc(F)c(C(=O)c2c[nH]c3ncc(-c4ccc(Cl)cc4)cc23)c1F
RAW-Dual [2]; [5]
  IRF Lucia reporter activity: 0.473

## C[C@@H]1O[C@@H](O[C@H]2[C@H](Oc3cc(O)c(C(=O)CCc4ccc(O)cc4)c(O)c3)O[C@H](CO)[C@@H](O)[C@@H]2O)[C@H](O)[C@H](O)[C@H]1O (library stock concentration (final ~1000-fold dilution): 10 mM)
RAW-Dual [1]; [4]
  IRF Lucia reporter activity: 1.06
RAW-Dual [1]; agonist: LPS (TLR4) 0.1 ug/mL
  IRF Lucia reporter activity: 0.758

## CCCCNC(=O)NS(=O)(=O)c1ccc(C)cc1 (library stock concentration (final ~1000-fold dilution): 10 mM)
RAW-Dual [1]; [4]
  IRF Lucia reporter activity: 0.997
RAW-Dual [1]; agonist: LPS (TLR4) 0.1 ug/mL
  IRF Lucia reporter activity: 1.02

## CCCCNC(=O)NS(=O)(=O)c1ccc(C)cc1
RAW-Dual [2]; [5]
  IRF Lucia reporter activity: 1.05

## CCCC(C(=O)OCCN(CC)CC)(c1ccccc1)c1ccccc1.Cl (library stock concentration (final ~1000-fold dilution): 10 mM)
RAW-Dual [3]; [4]
  IRF Lucia reporter activity: 0.573
RAW-Dual [3]; agonist: LPS (TLR4) 0.1 ug/mL
  IRF Lucia reporter activity: 1.64

## CCCC(C(=O)OCCN(CC)CC)(c1ccccc1)c1ccccc1.Cl
RAW-Dual [2]; cytotoxicity flag (confluency mask): cytotoxic (confluency <70% of control)
  IRF Lucia reporter activity: 1.46

## O=C(O)c1cc(-c2ccc(F)cc2F)ccc1O (library stock concentration (final ~1000-fold dilution): 10 mM)
RAW-Dual [1]; [4]
  IRF Lucia reporter activity: 1.02
RAW-Dual [1]; agonist: LPS (TLR4) 0.1 ug/mL
  IRF Lucia reporter activity: 1.28

## O=C(O)c1cc(-c2ccc(F)cc2F)ccc1O
RAW-Dual [2]; [5]
  IRF Lucia reporter activity: 1.11
